# Experimental data: paper PMC4336329 (PLoS ONE, 2015)
# Hit rate of the full screen: of about 310,000 compounds, about 2,200 (0.71%) showed an effect of 50% or more. The effect is printed as a negative number. Some of the results follow.
# Target: human ether-à-go-go-related gene (hERG) potassium channel (human, UniProt Q12809)
# Test: primary screen, population patch clamp on CHO cells stably expressing hERG
# human ether-à-go-go-related gene (hERG) potassium channel, sequence (Q12809 whole entry, looked up): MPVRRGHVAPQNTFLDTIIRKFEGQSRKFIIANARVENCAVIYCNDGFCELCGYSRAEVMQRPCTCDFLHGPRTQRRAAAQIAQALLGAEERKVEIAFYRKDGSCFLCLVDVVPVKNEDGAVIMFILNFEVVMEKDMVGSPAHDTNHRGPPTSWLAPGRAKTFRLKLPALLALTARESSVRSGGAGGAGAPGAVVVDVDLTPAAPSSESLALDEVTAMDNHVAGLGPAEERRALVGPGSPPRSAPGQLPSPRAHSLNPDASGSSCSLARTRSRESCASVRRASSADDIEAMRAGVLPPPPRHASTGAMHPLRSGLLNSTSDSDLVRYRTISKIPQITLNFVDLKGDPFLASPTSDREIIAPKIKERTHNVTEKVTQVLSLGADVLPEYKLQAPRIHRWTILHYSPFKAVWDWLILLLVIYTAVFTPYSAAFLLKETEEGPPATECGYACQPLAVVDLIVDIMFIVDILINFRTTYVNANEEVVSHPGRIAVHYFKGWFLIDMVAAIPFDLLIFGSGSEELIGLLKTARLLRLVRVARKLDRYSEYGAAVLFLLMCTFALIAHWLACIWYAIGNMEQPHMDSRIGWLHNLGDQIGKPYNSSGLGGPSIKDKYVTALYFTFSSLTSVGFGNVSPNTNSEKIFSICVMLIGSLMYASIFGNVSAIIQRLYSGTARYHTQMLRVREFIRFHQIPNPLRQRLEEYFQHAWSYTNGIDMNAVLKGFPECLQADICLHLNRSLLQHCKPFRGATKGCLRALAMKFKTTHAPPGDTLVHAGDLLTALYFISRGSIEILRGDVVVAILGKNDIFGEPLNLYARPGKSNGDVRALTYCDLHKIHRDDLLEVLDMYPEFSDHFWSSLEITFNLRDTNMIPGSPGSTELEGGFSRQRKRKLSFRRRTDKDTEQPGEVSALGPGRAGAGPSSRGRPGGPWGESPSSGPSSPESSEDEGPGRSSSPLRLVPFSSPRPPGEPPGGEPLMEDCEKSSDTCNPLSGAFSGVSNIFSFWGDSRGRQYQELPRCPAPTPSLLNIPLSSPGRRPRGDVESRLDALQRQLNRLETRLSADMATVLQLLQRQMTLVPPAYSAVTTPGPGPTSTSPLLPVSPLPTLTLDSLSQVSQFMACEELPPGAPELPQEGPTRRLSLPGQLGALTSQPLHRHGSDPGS
row,Compound,"hERG current change (%, negative = inhibition) at 1uM [%]"
1,CC(C)c1ccc(/C=C2\SC(=S)N(CC(=O)NCCCN3CCOCC3)C2=O)cc1,21.1
2,O=C(c1ccc(F)c(S(=O)(=O)N2CCOCC2)c1)N1CCN(c2ccc(F)cc2)CC1,-22.9
3,Nn1c(Cc2ccccc2)nc2sc3c(c2c1=O)CCC3,-3.44
4,CCOC(=O)c1c(-c2ccccc2)csc1NC(=O)C(C)NCCCN1CCOCC1.O=C(O)C(=O)O (stereo not drawn),9.26
5,COCC1CCN(C(=O)c2cc(COc3ccc(-n4cncn4)cc3)on2)CC1,-17.9
6,Cc1ccc2nc3nc(NCC4CCCO4)c(C(=O)NC4CCCC4)cc3c(=O)n2c1 (stereo not drawn),-83.8
7,CCOC(=O)c1c(CN2CCOCC2)oc2ccc(OC)cc12,5.97
8,COc1ccc(CNC(=O)N2CCN(S(=O)(=O)c3ccccc3)CC2)cc1,11
9,O=C(NNC(=O)C1CCCO1)c1ccc(Cl)cc1 (stereo not drawn),7.89
10,O=c1[nH]n(-c2ccc(F)cc2)c2ncccc12,7.16
11,Nc1ccc2oc3ncccc3c(=O)c2c1,10.9
12,COc1ccccc1OC(C)C(=O)N(Cc1ccco1)C1CCS(=O)(=O)C1 (stereo not drawn),-0.304
13,O=C(Nc1ccc(Br)cc1)C1CCN(C(=O)c2ccco2)CC1,8.24
14,O=C1CCCN1CN(C(=O)c1ccccc1)c1ccccc1,-16.4
15,NNC(=O)c1ccc(CSc2nc3ccccc3s2)cc1,27.1
16,COc1ccc([N+](=O)[O-])cc1NC(=O)c1ccc(Br)s1,0.25
17,Cc1ccc(CC(=O)Nc2nc3c(s2)CCCC3)cc1,13.5
18,O=C(O)c1ccc(/C=N/NC(=O)c2cc(-c3ccc4c5c(cccc35)CC4)n[nH]2)cc1,11.6
19,O=C(O)CCc1ccc(-c2ccc(Br)cc2)n1CC(=O)O,4.02
20,Cc1ccc(C(=O)OCC(=O)NN2C(=O)NC3(CCC(C)CC3)C2=O)cc1 (stereo not drawn),8.93
21,CCC(=O)N1CCc2cc(Br)cc(S(=O)(=O)N3CCCC(C(=O)O)C3)c21 (stereo not drawn),2.46
22,CC(=O)Nc1ccc(S(=O)(=O)NNC(=O)c2ccc(S(=O)(=O)N3CCCCC3)cc2)cc1,4.57
23,O=S(=O)(Cc1ccccc1Cl)Nc1ccccn1,4.37

row,Compound,"hERG current change (%, negative = inhibition) at 1uM [%]"
1,Cc1ccccc1NC1(C#N)CCCCC1,5.11
2,CCOC(=O)c1c(NC(=O)COc2cccc3c2CCN(Cc2ccc(F)cc2)C3=O)sc2c1CCC2,10.2
3,COc1ccc(-[n+]2c(-c3ccccc3)cc(-c3ccccc3)cc2-c2ccccc2)cc1.[O-][Cl+3]([O-])([O-])[O-],-29.2
4,CCN(C(=O)c1c(OC)cccc1OC)c1nnc(-c2cccnc2)s1,6.46
5,COc1ccc(Cl)c(OC)c1C(=O)NC(=O)Nc1c(F)cc(F)cc1F,11.3
6,Cc1ncc(S(=O)(=O)C(C)(C)C)c(N)n1,11.8
7,CCN(Cc1ccncc1)C(=O)CC1C(=O)NCCN1Cc1ccc(F)c(F)c1 (stereo not drawn),4.94
8,CC(=O)c1ccc(N2CCN(C(=O)Cc3n[nH]c(=O)c4ccccc34)CC2)cc1,6.9
9,COc1ccc2c(C(=O)c3ccc(C)cc3)n(Cc3ccc(C(N)=O)cc3)[n+]([O-])c2c1,5.95
10,COc1ccc(N2CCN(C(=O)c3cc4c(s3)-c3ccccc3S(=O)(=O)C4)CC2)cc1,6.04
11,O=C(NNc1ccc([N+](=O)[O-])cc1[N+](=O)[O-])C1C2CCCCC21 (stereo not drawn),1.83
12,CCCCCCCc1nn2c(=O)cc(O)nc2s1,4.86
13,Cl.NCCc1ccc(O)c(O)c1,16.6
14,Cl.OC1(c2cccc(C(F)(F)F)c2)CCNCC1,8.98
15,O=C(NCc1csc(-c2cccs2)n1)C1CCC1,5.19
16,COC(=O)CSc1nnc(CNS(=O)(=O)c2ccc(Cl)cc2)n1C,13.3
17,O=C(O)CSc1nnnn1C1CCCCC1,11.4
18,COc1cccc(CNc2ncnc3cc(OC)c(OC)cc23)c1,5.3
19,CCOC(=O)C1CCCN(C(=O)C2CCN(S(=O)(=O)c3c(C)noc3/C=C/c3ccccc3F)CC2)C1 (stereo not drawn),19.4
20,COc1ccc(C2c3[nH]c4ccccc4c3C[C@H]3C(=O)N(c4ccccc4C(=O)N4CCC[C@H]4C(=O)O)C(=O)N23)cc1 (stereo partly drawn),11.1
21,O=C(Nc1cccc(S(=O)(=O)C(F)F)c1)c1ccc(Cl)c(S(=O)(=O)N2CCOCC2)c1,2.01
22,CCOc1ccccc1N1CCN(CC(=O)Nc2ccnn2C2CCCC2)CC1,-14.1
23,Cc1oc(C(C)(C)C)cc1C(=O)Nc1cccc(/C=C\C(=O)O)c1,12.2

row,Compound,"hERG current change (%, negative = inhibition) at 1uM [%]"
1,CCOc1cccc(Nc2cc3n(c(=O)n2)CCc2cc(OC)c(OC)cc2-3)c1,-7.11
2,O=C(NNC(=O)c1ccc2c(=O)n3c(nc2c1)CCC3)c1ccc(F)cc1,11.2
3,O=C1N=C(N2CCOCC2)S/C1=C\c1ccncc1,10.8
4,C=C(C)c1cccc(C(C)(C)NC(=O)NCC2CCCO2)c1 (stereo not drawn),6.08
5,CN1CCN(C2CCN(c3cccc(Cl)c3)CC2)CC1CCO (stereo not drawn),16
6,CSc1ncccc1C(=O)OCC(=O)N(C)C,8.49
7,N#CC1=C(N)OC2=C(C(=O)CCC2)C1CCc1ccccc1 (stereo not drawn),9.32
8,CCc1ccc(C(=O)COC(=O)c2cncc(Br)c2)cc1,1.47
9,Cc1ccc(S(=O)(=O)N(C)c2ccc(OC(=O)c3cccs3)cc2)cc1C,13.5
10,COc1cc(OC)cc(C(=O)NCCc2cnc[nH]2)c1,17.8
11,CC(=O)Oc1ccc(Nc2ccccc2)cc1,17
12,O=C(NNC(=S)NCC1CCCO1)c1ccc(S(=O)(=O)N2CCOCC2)cc1 (stereo not drawn),11.5
13,COc1ccc(C2=CC(c3sccc3C)n3nnnc3N2)cc1 (stereo not drawn),5.33
14,CC(CCc1ccco1)NC(=O)c1cccc2c1C(=O)N(C1CCCCC1)C2 (stereo not drawn),7.73
15,O=C(NC1CCCC1)c1cccc(S(=O)(=O)N2CCCCC2)c1,1.28
16,COc1ccc(CNc2ccc(N3CCOCC3)cc2)cc1,18.9
17,Cc1ccc(C(=O)/C=C/C(=O)O)cc1,3.51
18,CCCCOCCCN1CC(=O)N2C(C)c3[nH]c4ccccc4c3C[C@H]2C1=O (stereo partly drawn),11.1
19,Cc1oc2ccc(OCc3cccc(Cl)c3)cc2c1C(=O)O,0.298
20,COCCN(CC(=O)NCc1ccc(OC)cc1)C(=O)CCC(=O)Nc1nccs1,11.7
21,CCOC(=O)c1c(CS(=O)(=O)c2ccccc2)n(C)c2cc(Br)c(O)c(CN(C)C)c12,-10.2
22,Cc1cc2nc(-c3ccc[nH]c3=O)[nH]c2cc1C,13.6
23,COCCCNC(=O)COc1ccc(S(=O)(=O)Nc2ccccc2)cc1,-4.03

row,Compound,"hERG current change (%, negative = inhibition) at 1uM [%]"
1,COc1cc2c(OC(C)=O)c3c(c(-c4ccc5c(c4)OCO5)c2cc1OC)C(=O)OC3,12.9
2,CSCCC(NS(=O)(=O)c1ccccc1F)C(=O)NCCCn1nc(C)cc1C (stereo not drawn),-1.95
3,C/C(CC(C)C)=N\Nc1ccc(S(N)(=O)=O)cc1[N+](=O)[O-],2.68
4,COc1nc(SCC(=O)Nc2ccccc2Cl)nc(N(C)C)n1,8.71
5,COCCNC(=O)/C(C#N)=C/c1c(N2CCN(c3cccc(Cl)c3)CC2)nc2c(C)cccn2c1=O,11.7
6,CCc1ccc(NC(=O)CN2CCc3ccccc3C2)cc1,-20.3
7,COc1ccc(C(=O)CCc2ccc(OC)c(OC)c2)cc1,8.32
8,O=C(CSc1nnc2ccccn12)c1ccc(Cl)cc1,4.39
9,N#Cc1cccc(-c2nnc(SCc3ccccc3C#N)o2)c1,-6.73
10,O=C(NC(=O)N1CCN(c2ccc(F)cc2)CC1)c1ccccc1,4.42
11,Cn1c(CNC(=O)c2ccc(Cl)cc2)nnc1SCC(=O)N1CCOCC1,17.2
12,O=C(Nc1ccccc1)Nc1ccc(F)cc1F,13.3
13,COc1cc(C(=O)Nc2cc(C)ccn2)ccc1OCC(=O)N1CCOCC1,4.29
14,Fc1ccc(-n2nnc(-c3ccccc3Cl)n2)cc1,16.2
15,CN(C)C(=S)Nc1ccc(Cc2ccncc2)cc1,13.7
16,Cc1sc2ncnc(-n3nnc4ccccc43)c2c1C,8.8
17,COc1ccc(S(=O)(=O)N2CCC(C(N)=O)CC2)cc1,14.4
18,COc1ccc(CCNC(=O)c2c([S-])n(-c3ccc(C)cc3)c3cccc[n+]23)cc1,10.5
19,O=C(NC1(C(F)(F)F)Oc2ccccc2O1)N1CCCC1,1.78
20,CC(C)(C)c1cnnn1-c1ccc(C(=O)CCl)cc1,10.9
21,COc1ccc(C(=O)NCC(c2ccco2)N(C)C)cc1S(=O)(=O)NCc1ccc(Cl)cc1 (stereo not drawn),-3.71
